# Assay results as given in PubChem BioAssay AID1345083 (National Center for Advancing Translational Sciences (NCATS), 2018).
# Out of some 94,000 compounds screened, about 6,200 (6.6%) were called active. This list was built around the results that the source calls inconclusive (neither active nor inactive); the mix of calls is not that of the screen. Calls follow the shape of the dose curve; as a rule, active = well fitted inhibition curve with a large enough effect; inconclusive = small, poorly fitted or top-dose-only effect; inactive = flat fitted curve, though single readings scatter. A potency beside an inconclusive call is a rough fit, not a confirmed value.
# Assay: Cytotoxic Profiling in HEK 293 Cell Line of Diverse Libraries Using Quantitative High-Throughput Screening; also: nearly all actives have a fitted effect of over 60% in size
# Details: HEK 293 viability, ATP luminescence (CellTiter-Glo), 48-72 h; activity change, negative = cytotoxicity: at 115 µM (top of the series) unless noted; series mostly up to 115 µM
# Procedure, shortened: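 250 HEK 293 cells/well; compound by pintool; incubated 48 or 72 hr at 37 degree Celsius; CellTiter-Glo added, 10 min RT, luminescence imaged.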
# % is scaled to controls: 0 for no effect and ±100 for the full control effect; potency is read from the fitted curve at half-maximal effect; tags tell the direction and shape of the fitted curve.
Structure (SMILES),Potency,"activity change, negative = cytotoxicity"
Cc1cccc(OCCc2noc(C3CCN(C(=O)CN4CCCCCC4)C3)n2)c1 (stereo not drawn),"inconclusive: 56.2 µM [inhibitor, partial curve, poor fit]",–
C[C@H](C(=O)N1CCCC1)C1CC[C@@]2(C)Cc3sc(-c4ccccc4)nc3[C@@H](C)[C@@H]2[C@H]1O (stereo partly drawn),active: 44.7 µM,–
CC(C)(O)c1cc(CC2(NCc3ccc(OC(F)(F)F)cc3)COC2)no1,"inconclusive: 44.7 µM [inhibitor, partial curve, poor fit]",–
O=C(NC1CCCCC1)c1nc2sccn2c1-c1ccc(F)cc1,"inconclusive: 25.1 µM [inhibitor, full curve]",–
COc1cccc([S+](=O)([O-])N2CCC3(CC2)CC(=O)Nc2ccccc2O3)c1,active: 50.1 µM,–
Cc1cccc(NC(=O)N2CCC3(CC2)SCC(=O)N3Cc2ccco2)c1,"inconclusive: 89.1 µM [inhibitor, single point]",–
O=C(Cc1ccsc1)N1CCC2(CC1)N=C(c1ccccc1)NO2,"inconclusive: 79.4 µM [inhibitor, single point]",–
COCCOC1CCOC2(CCN(S(=O)(=O)c3ccc(F)cc3)CC2)C1 (stereo not drawn),–,inactive: -2.86%
Cc1nc(N2CCC(NC(=O)c3cnccn3)CC2)cc(C(F)(F)F)n1,–,inactive: 0.535%
N#Cc1ccc(C(=O)NC2CCN(c3cc(-c4ccccc4)[nH]n3)CC2)cc1,"inconclusive: 50.1 µM [inhibitor, partial curve, poor fit]",–
COCCOC1CCOC2(CCN(C(=O)CCCc3ccccc3)CC2)C1 (stereo not drawn),"inconclusive: 44.7 µM [inhibitor, partial curve]",–
Cc1nc(-c2c3n(c(=O)n(Cc4ccccc4)c2=O)CCCCC3)no1,–,inactive: 4.81%
CC(=O)N1CC2(CCCN(Cc3cc4ccccc4[nH]3)C2)Cc2ccccc21 (stereo not drawn),"inconclusive: 50.1 µM [inhibitor, partial curve, poor fit]",–
CC(C)(Oc1nn(Cc2cccc(Cl)c2)c2ccccc12)C(=O)Nc1cccnc1,active: 35.5 µM,–
Cc1cc(C(=O)NCC2Cn3cccc3CN2Cc2ccccc2)n[nH]1 (stereo not drawn),"inconclusive: 89.1 µM [inhibitor, single point]",–
CC(C)n1c(CNC(=O)C2CC(=O)N(C3CCCC3)C2)nc2ccccc21 (stereo not drawn),"inconclusive: 56.2 µM [inhibitor, partial curve, poor fit]",–
C[S+](=O)([O-])CCn1ncc2cc(OCc3cccc(-c4ccoc4)c3)ccc21,active: 70.8 µM,–

Structure (SMILES),Potency,"activity change, negative = cytotoxicity"
FC(F)(F)c1cccc(C2=NOC3(CCN(Cc4ccccc4)C3)C2)c1 (stereo not drawn),active: 44.7 µM,–
CNC1CCN(C(=O)CC2(Cc3ccccc3)C(=O)N(C)c3ccccc32)CC1 (stereo not drawn),–,inactive: -1.09%
CCCN(CC1CCOC1)S(=O)(=O)c1cccc(Br)c1 (stereo not drawn),"inconclusive: 89.1 µM [inhibitor, single point]",–
C[S+](=O)([O-])NCCNC(=O)c1cccc(-c2ccsc2)c1,"inconclusive: 100 µM [inhibitor, partial curve]",–
CCc1nc2c(c(-c3ccc(OC)cc3)n1)CCN(Cc1ccc(C#N)cc1)CC2,"inconclusive: 89.1 µM [inhibitor, single point]",–
COc1ccc(-c2ccc(C(=O)N3CCC(NC(=O)c4ccccc4Cl)C3)cc2)nn1 (stereo not drawn),–,inactive: -21%
CC(C)N1C[C@H](O)C[C@H]1c1nnc2n1CCN(C(=O)c1ccc(Cn3ccnc3)o1)CC2,–,inactive: -8.26%
COCc1ccc2c(c1)c(OC(C)(C)C(=O)N1CC(O)C1)nn2Cc1cccnc1,–,inactive: 2.37% [at 172 µM]
O=C(Cc1ccc(F)cc1)N1CCC2(CC1)CN(Cc1ccccc1)CC2CO (stereo not drawn),active: 44.7 µM,–
CCc1cccc(OCC(=O)c2ccc3c(c2)N(CC(=O)NCc2ccco2)C(=O)CO3)c1,"inconclusive: 89.1 µM [inhibitor, single point]",–
COCC1CN(C)CC12CCN(Cc1ccc(OC)c(OC)c1Cl)CC2 (stereo not drawn),"inconclusive: 44.7 µM [inhibitor, partial curve, poor fit]",–
CC(C)NC(=O)Cn1ccn2nc(-c3ccc(F)cc3)c(CO)c2c1=O,–,inactive: -5.66%
COC1C(=O)N(c2cccc(F)c2)C12CCN(C(=O)c1cc(C)n(C)n1)CC2 (stereo not drawn),–,inactive: -8.47%
Cc1noc(C)c1[S+](=O)([O-])NC1CCCN(Cc2ccc(-c3cncnc3)cc2)C1 (stereo not drawn),"inconclusive: 89.1 µM [inhibitor, single point]",–
CN(Cc1ccc2nonc2c1)C(=O)C1CCC(=O)N(Cc2ccc(Cl)cc2)C1 (stereo not drawn),–,inactive: -11%
Fc1ccc(CN2CCNc3cc(Nc4ccccc4)ncc3C2)cc1F,active: 22.4 µM,–
